Measured values reported in PubChem BioAssay AID1159614 (National Center for Advancing Translational Sciences (NCATS), 2016).
Hit rate of the full screen: of about 45,000 compounds, about 65 (0.1%) were called active. The call rests on the fitted dose curve; in most records, active means well fitted activation curve with a large enough effect; inconclusive means small, poorly fitted or top-dose-only effect; inactive means no such curve, though single readings can be large or run the other way. The list shows a part of the results.

molecular target: Galactocerebrosidase (Homo sapiens) (UniProt P54803); test: A Novel Cell-Based Assay to Identify Small Molecules for B -Galactocerebrosidase; settings: 145M-Twi-hGALC-G270D cells (Twitcher mouse brain line with human GALC G270D), HMU-beta-Gal fluorescence, 48 h; series mostly up to 57.5 µM; activation: at the top concentration; further: 0% is about no effect; nearly all actives have a fitted effect of over 65% in size
Procedure, shortened: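 Brain-derived Twitcher mouse 145M-Twi cells stably expressing human GALC-G270D or wild-type GALC, treated live, then residual GALC activity read by fluorescence of HMU-b-Gal substrate (0.1 mM final) in citrate-phosphate buffer pH 5.2 with sodium taurocholate. Signal increase indicates enhancement.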

Sequence of UniProt P54803 (P54803 whole entry, looked up): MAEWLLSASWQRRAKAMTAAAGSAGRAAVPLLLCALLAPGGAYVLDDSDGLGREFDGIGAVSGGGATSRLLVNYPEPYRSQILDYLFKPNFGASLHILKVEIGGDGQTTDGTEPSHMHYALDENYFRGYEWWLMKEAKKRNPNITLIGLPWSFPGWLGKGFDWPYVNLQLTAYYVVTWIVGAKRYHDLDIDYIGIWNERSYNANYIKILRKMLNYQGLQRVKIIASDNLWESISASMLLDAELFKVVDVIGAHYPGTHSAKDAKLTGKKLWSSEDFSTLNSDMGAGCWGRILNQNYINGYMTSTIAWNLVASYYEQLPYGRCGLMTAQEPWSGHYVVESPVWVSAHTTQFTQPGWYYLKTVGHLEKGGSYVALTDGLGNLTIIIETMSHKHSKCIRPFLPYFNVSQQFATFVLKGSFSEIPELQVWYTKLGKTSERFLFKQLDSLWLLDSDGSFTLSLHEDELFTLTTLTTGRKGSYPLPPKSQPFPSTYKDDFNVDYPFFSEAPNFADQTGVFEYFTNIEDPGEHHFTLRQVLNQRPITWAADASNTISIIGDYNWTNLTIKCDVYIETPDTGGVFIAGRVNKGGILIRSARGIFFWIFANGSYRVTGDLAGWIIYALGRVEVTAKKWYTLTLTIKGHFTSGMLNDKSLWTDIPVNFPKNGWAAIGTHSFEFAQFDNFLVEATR

activation, inactive:
CC(C)CC(=O)Nc1nnc(S(=O)(=O)N2CCCCCC2)s1 -17.4%
Cc1cccc(C)c1NC(=O)c1ccc2c(c1)N(Cc1cccc(Cl)c1)C(=O)c1ccccc1S2=O (configuration not stated) -2.48%
Cc1ccc(CCNC(=O)CCN2N=C(c3ccc(C)cc3)CCC2=O)cc1 -0.656%
CCOc1ccc(C(=O)Nc2cc(NC(=O)c3ccco3)ccc2OC)cc1Br -10.9%
Cc1ccc(Cl)cc1Nc1nc2ccccc2c2nncn12 -15.1%
COc1ccc(-c2nc3cc(NC(=O)Cc4ccc(Cl)cc4)ccc3o2)cc1OC -23.4%
Cc1ccsc1CCN1C(=O)N(c2ccccc2)C(=O)C1CC(=O)Nc1ccc(F)cc1 (configuration not stated) -11.8%
COc1ccc(CCC(=O)NCc2ccc3c(c2)CCN3C(=O)c2ccc(F)cc2)cc1 -17.6%
Cc1nc(C)c(-c2ccc(SCC(=O)Nc3ccc(Cl)c(Cl)c3)nn2)s1 -19.5%
COc1ccc(OC)c(-n2nnc3c(sc4nc(C)c(Br)c(C)c43)c2=O)c1 -20.7%
COc1ccccc1NC(=O)N1c2ccccc2Sc2ccccc21 -29.6%
Cc1ccc(C(=O)N(Cc2sccc2C)C2CCS(=O)(=O)C2)cc1 (configuration not stated) 2.41%
O=C(NC1CCCC1)c1ccc2c(c1)N(Cc1ccc(C(F)(F)F)cc1)C(=O)c1ccccc1S2 -15.6%
Cc1ccccc1Cn1c(=O)n(Cc2ccc3c(c2)OCO3)c(=O)c2oc3ccccc3c21 1.76%
NC(=O)c1ccccc1NC(=O)C1CCCN(c2ncnc3onc(-c4ccc(F)cc4)c23)C1 (configuration not stated) -8.35%
O=C(c1cccs1)N(Cc1cccnc1)c1nc2c(Cl)cccc2s1 -1.89%
O=C(c1ccc(C(F)(F)F)cc1)N1CCC(c2noc(-c3ccc(S(=O)(=O)N4CCCC4)cc3)n2)CC1 -15.8%
O=C(CCc1nc2cccnc2n1Cc1cccs1)Nc1cccc(C(F)(F)F)c1 -18.5%
Cc1ccc(NC(=O)CN2C(=O)CCc3cc(S(=O)(=O)N4CCOCC4)ccc32)cc1N(C)C -3.89%
COc1ccc(Nc2c3c(nc4ccc(NC(=O)/C=C/c5cc(OC)c(OC)c(OC)c5)cc24)CCCC3)cc1OC -14.3%
O=C(Nc1ccc(-c2nc3cc(NC(=O)c4ccccc4Cl)ccc3o2)cc1)c1ccccc1Cl -13.1%
COc1ccc(-c2noc(CCC(=O)N(C)c3ccccc3C)n2)cc1 -4.7%
COc1ccc(N2CCN(C(=O)CSc3n[nH]c(-c4ccccc4)n3)CC2)cc1 2.1%
COCCCNS(=O)(=O)c1cc(-c2onc(C)c2C)ccc1OC -1.56%
CN(C)C(=O)c1ccc(NC(=O)Cn2nnnc2-c2ccccc2F)cc1 -7.1%
Cc1ccccc1C(=O)N(Cc1ccc(N(C)C)cc1)Cc1ccco1 -6.57%
COc1ccccc1CNC(=O)Cc1c(C)c2c(cc(C)c3c(C)coc32)oc1=O -16.2%
